What is called % Inhibition is the relative decrease from the control value, in per cent.

Experimental findings from ChEMBL document CHEMBL4888484, “Replenishing the malaria drug discovery pipeline: Screening and hit evaluation of the MMV Hit Generation Library 1 (HGL1) against asexual blood stage Plasmodium falciparum ,using a nano luciferase reporter read-out” (2022) are described below.

Screen size: about 150,000 compounds; about 540 (0.36%) showed an effect of 50% or more. Some of the results follow.

The experiment concerns Plasmodium falciparum. The experiment is described as follows: Primary screen in NF54 nanoGlo assay, in single point, at 2uM, 72h; a lower Z score goes with more inhibition. It counts as functional, Erythrocyte. The following applies: timepoint 72 hour.
For the molecule `N#Cc1cc(Cl)ccc1S(=O)(=O)N1CC[C@H](N2CCCC2)C1`, the “% Inhibition” value is given as -4% and the Z score was 0.47.
The corresponding values for `O=C1CN(C2CCCC2)C(=O)N1CCCCOc1ccccc1` are -10% and 1.37.
Take `CCC(CC)(CNC(=O)C1(C)CCN(C)CC1)OC`: the “% Inhibition” value is reported as -2% and the Z score is listed as 0.24.
Turning to `C[C@H]1Cc2ccccc2N1C1=NS(=O)(=O)c2ccccc21`, the “% Inhibition” value was -8% and the Z score turned out to be 1.
As to `Cc1ccc2c(c1)Oc1cc(Cl)c(S(=O)(=O)N3CCc4ccccc4C3)cc1C(=O)N2`, the “% Inhibition” value is on record as -10% and the Z score came to 1.35.
The corresponding values for `CC(C)(C(N)=O)c1ccc(C2=CCCCC2)cc1` are 0% and -0.05.
For the molecule `CN(CC#CC(C)(C)O)Cc1ccccc1`, the “% Inhibition” value was -6% and the Z score came out at 0.77.
As to `Cc1ccccc1S(=O)(=O)NCc1nnc(C(=O)Nc2ccccc2F)s1`, the “% Inhibition” value worked out at 8% and the Z score was -0.87.
On to `Cc1cc(NC(=O)NCC(=O)N2CCCC2)sn1`, for which the “% Inhibition” value is recorded as -24% and the Z score is given as 2.8.
The corresponding values for `Cc1cc(C(=O)Cn2cnc(C#N)n2)c(C)n1[C@H]1CCS(=O)(=O)C1` are 0% and 0.05.
For `COc1ccc(CCOc2nc(-c3ccc(Cl)c(Cl)c3)n(-c3ccc(NC(=O)c4cccs4)cc3)n2)cc1`, the “% Inhibition” value is recorded as -2% and the Z score worked out at 0.25.
For `Cc1cc(NS(=O)(=O)c2cccnc2)ccn1`, in that order: 7% and -1.2.
The corresponding values for `Cc1cc(=O)n(CC(=O)Nc2ccccc2C)c(N2CCC(C)CC2)n1` are -4% and 0.36.
For the molecule `Cc1cc(NC(=O)c2ccc(F)cn2)no1`, the “% Inhibition” value stood at 15% and the Z score is on record as -1.62.
The corresponding values for `COc1cc(C(=O)N2CCc3c(cccc3C(C)C)C2)sc1S(N)(=O)=O` are -7% and 1.12.
For the molecule `C#CCN1CCC(C(=O)N(C2CCCC2)C2CC2)CC1`, the “% Inhibition” value is on record as -11% and the Z score worked out at 1.13.
For `O=C(NCCCN1CCCC1=O)C1CCCCC1`, in that order: -10% and 1.45.
For `COc1ccc([C@H]2Nc3ccccc3C(=O)N2c2cccc3ccccc23)cc1COc1ccccc1F`, in that order: 13% and -2.08.
For the molecule `C[C@@H](CC(=O)N(C)CCS(C)(=O)=O)c1ccc(F)cc1F`, the “% Inhibition” value was determined as 4% and the Z score is -0.59.
With `Cn1c(-c2nc(-c3ccccc3F)no2)cccc1=O`, the “% Inhibition” value is 0% and the Z score worked out at 0.03.
For `COc1ccc(CNCCOc2ccccc2)cc1OC[C@@H](O)CN1CCCCC1`, in that order: 7% and -1.33.
The corresponding values for `CC(=O)N1CCC(C(=O)N[C@H]2CC[C@H](Oc3nc(C)cc(C)n3)CC2)CC1` are -2% and 0.22.
Take `COc1cc(OC)cc(C(=O)Nc2nc(C(=O)N3CCCCCC3)cs2)c1`: the “% Inhibition” value was -18% and the Z score was found to be 3.32.
As for `O=C(NCc1ccccc1Cl)c1ccc2c(c1)NC(=O)[C@@H]1CCCCN21`, the “% Inhibition” value was -18% and the Z score was determined as 2.47.
For `CC(=O)Nc1ccc(C(C)(C)C)cc1NC(C)=O`, in that order: -4% and 0.46.
For the molecule `O=S(=O)(NCC1CC2CCC1C2)c1ccc(Cl)s1` (configuration not stated), the “% Inhibition” value was -4% and the Z score is recorded as 0.48.
With `Cn1cccc(C(=O)NC[C@H]2C[C@@H]2c2ccccc2)c1=O`, the “% Inhibition” value is on record as -6% and the Z score amounted to 1.12.
Regarding `O=C(c1cccs1)N1CCC(C(=O)N2CCN(c3nccs3)CC2)CC1`, the “% Inhibition” value is recorded as -4% and the Z score is listed as 0.58.
Regarding `Cc1nc2nncn2c(Nc2ccc3c(c2)CCC3)c1C`, the “% Inhibition” value is 0% and the Z score is given as 0.04.
For `Fc1ccccc1CNCc1cnc2ccc(Br)cn12`, in that order: -9% and 1.34.
Turning to `CCN(CCN1CCOCC1)C(=O)c1cc(C(F)(F)F)n[nH]1`, the “% Inhibition” value was -3% and the Z score came to 0.35.
Consider `CCCCNC(=O)[C@H](C#N)c1nccn1C(F)F`, for which the “% Inhibition” value is reported as -14% and the Z score worked out at 1.69.
For `OCC[C@H](Nc1ncc(Cl)cc1Br)c1ccco1`, in that order: -11% and 1.45.
For `CCc1cc(N2CCC[C@](C)(CO)C2)nc(N(C)C)n1`, in that order: 0% and -0.02.
Consider `CCOC(C)C(=O)N(CC1CN(C)CCO1)c1nccs1` (configuration not stated), for which the “% Inhibition” value is recorded as -17% and the Z score came to 3.1.
For `COc1ccc(Cl)cc1N1CC[C@H](NC(=O)c2cc[nH]n2)C1`, the “% Inhibition” value came out at 5% and the Z score is -0.61.
For `COc1cc(Br)c(S(=O)(=O)Nc2ccccc2-c2cn[nH]c2)cc1Cl`, in that order: -4% and 0.39.
The corresponding values for `CN(CCOc1ccc(O)cc1)C(=O)c1cccc2c1CCOC2` are -4% and 0.43.
The corresponding values for `NC(=O)CCN(CCc1ccccc1)Cc1c[nH]nc1-c1ccc(F)cc1` are 2% and -0.36.
For the molecule `CN(C)C(=O)NC[C@@H](CO)Cc1ccccc1C(F)(F)F`, the “% Inhibition” value is -4% and the Z score amounted to 0.82.
For `CN(Cc1noc(C2CC2)n1)C1CCN(c2ccccc2F)CC1`, in that order: -1% and 0.09.
For `O=C(CN1CCCCC1)NC(=O)NC1CCCC1`, in that order: -11% and 1.07.
The corresponding values for `CCOc1cc([C@H]2Nc3ccccc3C(CC)(CC)O2)ccc1O` are -16% and 2.07.
`C[C@H]1c2ccccc2CN1S(=O)(=O)c1ccc(N2CCCC2=O)cc1`: the “% Inhibition” value is -8% and the Z score came out at 1.24.
On to `CCOC(=O)c1nc(N(CC)Cc2ccccc2)c2ccccc2n1`, for which the “% Inhibition” value is -1% and the Z score is 0.11.
The corresponding values for `CCN1C(=O)CCN(S(=O)(=O)c2ccc3c(c2)OCCO3)CC12CCOCC2` are 3% and -0.42.
The corresponding values for `Nc1nnc([C@H]2CCCN(CC(=O)N3CCC(Cc4ccccc4)CC3)C2)o1` are -5% and 0.72.
In the case of `COC(=O)[C@@H](NCc1cnc(C)cn1)C(C)(C)C`, the “% Inhibition” value is on record as -9% and the Z score was 0.96.
For `CC1CC(C(=O)N[C@@H](C)c2cnccn2)CC(C)(C)C1` (some centres not stated), in that order: 8% and -0.99.
For `O=C1CCCCCN1CC(=O)N1CC[C@@]2(CCCN(CC3CCC3)C2=O)C1`, in that order: 9% and -1.08.
For `O=C(c1cccc(F)c1F)N1CCOC[C@H]1c1nc(-c2cccs2)no1`, in that order: 7% and -1.03.
Consider `Cc1ccccc1[C@H]1CCCN(Cc2ccnn2C)C1`, for which the “% Inhibition” value was -4% and the Z score is 0.61.
For `Cc1ccc2c(c1)CCCN2C(=O)c1cc(C)no1`, the “% Inhibition” value was -16% and the Z score is reported as 2.13.
The corresponding values for `COc1ccc2c(c1)C(N1CCN(S(=O)(=O)c3cccc(F)c3)CC1)=Nc1ccc(C)cc1O2` are -15% and 2.4.
Take `COC1CCN([C@@H](C)C(=O)N2CCCCCC2)CC1`: the “% Inhibition” value is recorded as 2% and the Z score is recorded as -0.46.
The corresponding values for `COCCC(=O)N1CCCn2cc(-c3cccc(C#N)c3)nc21` are -9% and 1.48.
